# The list shows a part of the results.
# B1: Als3-2 (Candida albicans) (protein)
# chain: KTITGVFNSFNSLTWSNAATYNYKGPGTPTWNAVLGWSLDGTSASPGDTFTLNMPCVFKFTTSQTSVDLTAHGVKYATCQFQAGEEFMTFSTLTCTVSNTLTPSIKALGTVTLPLAFNVGGTGSSVDLEDSKCFTAGTNTVTFNDGGKKISINVDFERSNVDPKGYLTD
# Tests used:
# Assay in all cases: glycan array binding signal (z-score within array); higher = stronger binding
# Conditions in all cases: glycan notation: IUPAC condensed, linker removed
# [1] = molecular target: GlcNAc(b1-3)Gal(b1-4)GlcNAc(b1-3)Gal(b1-4)GlcNAc(b1-3)GalNAc
# Outline: (§1)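 Arrays were curated from the Consortium for Functional Glycomics database, 3228 in total, and kept only where the protein sequence was available. Binding is expressed as a within-array Z-score. This score was averaged across arrays of the same protein sequence at different concentrations or buffers and across linkers, and negative values can be read as non-binding.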
# [2] = molecular target: GlcNAc(b1-3)Gal(b1-4)GlcNAc(b1-3)GalNAc
# Outline: as §1
# [3] = molecular target: GlcNAc(b1-3)Gal(b1-4)GlcNAc(b1-3)[GlcNAc(b1-3)Gal(b1-4)GlcNAc(b1-3)]GalNAc
# Outline: as §1
# [4] = molecular target: GlcNAc(b1-3)Gal(b1-4)GlcNAc(b1-6)[Gal(b1-3)]GalNAc
# Outline: as §1
# [5] = molecular target: GlcNAc(b1-3)Gal(b1-4)GlcNAc(b1-6)[GlcNAc(b1-3)Gal(b1-3)]GalNAc
# Outline: as §1
# [6] = molecular target: GlcNAc(b1-3)Gal(b1-4)GlcNAc(b1-6)[GlcNAc(b1-3)]Gal(b1-4)GlcNAc
# Outline: as §1
# GlcNAc(b1-3)GalNAc = molecular target: GlcNAc(b1-3)GalNAc
# Outline: as §1
# GlcNAc(b1-3)Man = molecular target: GlcNAc(b1-3)Man
# Outline: as §1
# [7] = molecular target: GlcNAc(b1-3)[GlcNAc(b1-4)][GlcNAc(b1-6)]GlcNAc
# Outline: as §1
# [8] = molecular target: GlcNAc(b1-3)[GlcNAc(b1-6)]Gal(b1-4)GlcNAc
# Outline: as §1
# [9] = molecular target: GlcNAc(b1-3)[GlcNAc(b1-6)]GalNAc
# Outline: as §1
# [10] = molecular target: GlcNAc(b1-4)Gal(b1-4)GlcNAc
# Outline: as §1
# GlcNAc(b1-4)GlcNAc = molecular target: GlcNAc(b1-4)GlcNAc
# Outline: as §1
# [11] = molecular target: GlcNAc(b1-4)GlcNAc(b1-4)GlcNAc
# Outline: as §1
# [12] = molecular target: GlcNAc(b1-4)GlcNAc(b1-4)GlcNAc(b1-4)GlcNAc(b1-4)GlcNAc
# Outline: as §1
# [13] = molecular target: GlcNAc(b1-4)GlcNAc(b1-4)GlcNAc(b1-4)GlcNAc(b1-4)GlcNAc(b1-4)GlcNAc
# Outline: as §1
# [14] = molecular target: GlcNAc(b1-4)[GlcNAc(b1-6)]GalNAc
# Outline: as §1
# [15] = molecular target: GlcNAc(b1-6)Gal(b1-4)GlcNAc
# Outline: as §1
# GlcNAc(b1-6)GalNAc = molecular target: GlcNAc(b1-6)GalNAc
# Outline: as §1
# [16] = molecular target: GlcNAc6S(b1-3)Gal(b1-4)GlcNAc
# Outline: as §1
# Kdn(a2-3)Gal(b1-3)GalNAc = molecular target: Kdn(a2-3)Gal(b1-3)GalNAc
# Outline: as §1
# Kdn(a2-3)Gal(b1-3)GlcNAc = molecular target: Kdn(a2-3)Gal(b1-3)GlcNAc
# Outline: as §1
# Kdn(a2-3)Gal(b1-4)Glc = molecular target: Kdn(a2-3)Gal(b1-4)Glc
# Outline: as §1
# Kdn(a2-3)Gal(b1-4)GlcNAc = molecular target: Kdn(a2-3)Gal(b1-4)GlcNAc
# Outline: as §1
# [17] = molecular target: Kdn(a2-3)Gal(b1-4)[Fuc(a1-3)]GlcNAc
# Outline: as §1
# Kdn(a2-6)Gal(b1-4)GlcNAc = molecular target: Kdn(a2-6)Gal(b1-4)GlcNAc
# Outline: as §1
# [18] = molecular target: Man(a1-2)Man(a1-2)Man(a1-3)Man
# Outline: as §1
# [19] = molecular target: Man(a1-2)Man(a1-2)Man(a1-6)[Man(a1-3)]Man
# Outline: as §1
# Man(a1-2)Man(a1-3)Man = molecular target: Man(a1-2)Man(a1-3)Man
# Outline: as §1
# [20] = molecular target: Man(a1-2)Man(a1-3)[Man(a1-2)Man(a1-6)]Man
# Outline: as §1
# [21] = molecular target: Man(a1-2)Man(a1-3)[Man(a1-2)Man(a1-6)]Man(a1-6)[Man(a1-2)Man(a1-2)Man(a1-3)]Man
# Outline: as §1
# [22] = molecular target: Man(a1-2)Man(a1-3)[Man(a1-2)Man(a1-6)]Man(a1-6)[Man(a1-2)Man(a1-2)Man(a1-3)]Man(b1-4)GlcNAc(b1-4)GlcNAc
# Outline: as §1
# [23] = molecular target: Man(a1-2)Man(a1-3)[Man(a1-6)]Man(a1-6)[Man(a1-2)Man(a1-3)]Man(b1-4)GlcNAc(b1-4)GlcNAc
# Outline: as §1
# [24] = molecular target: Man(a1-2)Man(a1-6)[Man(a1-3)]Man(a1-6)[Man(a1-2)Man(a1-2)Man(a1-3)]Man
# Outline: as §1
# [25] = molecular target: Man(a1-2)Man(a1-6)[Man(a1-3)]Man(a1-6)[Man(a1-2)Man(a1-2)Man(a1-3)]Man(b1-4)GlcNAc(b1-4)GlcNAc
# Outline: as §1
# Man(a1-3)[Man(a1-6)]Man = molecular target: Man(a1-3)[Man(a1-6)]Man
# Outline: as §1
# [26] = molecular target: Man(a1-3)[Man(a1-6)]Man(a1-6)[Man(a1-2)Man(a1-3)]Man(b1-4)GlcNAc(b1-4)GlcNAc
# Outline: as §1
# [27] = molecular target: Man(a1-3)[Man(a1-6)]Man(a1-6)[Man(a1-3)]Man
# Outline: as §1
# [28] = molecular target: Man(a1-3)[Man(a1-6)]Man(a1-6)[Man(a1-3)]Man(b1-4)GlcNAc(b1-4)GlcNAc
# Outline: as §1
# [29] = molecular target: Man(a1-3)[Man(a1-6)]Man(b1-4)GlcNAc(b1-4)GlcNAc
# Outline: as §1
# [30] = molecular target: Man(a1-3)[Man(a1-6)]Man(b1-4)GlcNAc(b1-4)[Fuc(a1-6)]GlcNAc
# Outline: as §1
# Man(a1-6)Man = molecular target: Man(a1-6)Man
# Outline: as §1
# Man(b1-4)GlcNAc = molecular target: Man(b1-4)GlcNAc
# Outline: as §1
# MurNAc(b1-4)GlcNAc = molecular target: MurNAc(b1-4)GlcNAc
# Outline: as §1
# Neu5Ac(a2-3)Gal = molecular target: Neu5Ac(a2-3)Gal
# Outline: as §1
binder,measurement,setting,value
B1,glycan array binding signal (z-score),[1],-0.04
same,glycan array binding signal (z-score),[2],-0.214
same,glycan array binding signal (z-score),[3],1.28
same,glycan array binding signal (z-score),[4],0.503
same,glycan array binding signal (z-score),[5],-0.331
same,glycan array binding signal (z-score),[6],-0.076
same,glycan array binding signal (z-score),GlcNAc(b1-3)GalNAc,-0.425
same,glycan array binding signal (z-score),GlcNAc(b1-3)Man,-0.637
same,glycan array binding signal (z-score),[7],-0.516
same,glycan array binding signal (z-score),[8],-0.666
same,glycan array binding signal (z-score),[9],0.124
same,glycan array binding signal (z-score),[10],0.049
same,glycan array binding signal (z-score),GlcNAc(b1-4)GlcNAc,0.531
same,glycan array binding signal (z-score),[11],-0.338
same,glycan array binding signal (z-score),[12],-0.045
same,glycan array binding signal (z-score),[13],0.677
same,glycan array binding signal (z-score),[14],-0.507
same,glycan array binding signal (z-score),[15],1.94
same,glycan array binding signal (z-score),GlcNAc(b1-6)GalNAc,0.471
same,glycan array binding signal (z-score),[16],0.648
same,glycan array binding signal (z-score),Kdn(a2-3)Gal(b1-3)GalNAc,-0.017
same,glycan array binding signal (z-score),Kdn(a2-3)Gal(b1-3)GlcNAc,-0.695
same,glycan array binding signal (z-score),Kdn(a2-3)Gal(b1-4)Glc,-0.075
same,glycan array binding signal (z-score),Kdn(a2-3)Gal(b1-4)GlcNAc,-0.528
same,glycan array binding signal (z-score),[17],0.485
same,glycan array binding signal (z-score),Kdn(a2-6)Gal(b1-4)GlcNAc,-0.54
same,glycan array binding signal (z-score),[18],1.73
same,glycan array binding signal (z-score),[19],-0.461
same,glycan array binding signal (z-score),Man(a1-2)Man(a1-3)Man,-0.511
same,glycan array binding signal (z-score),[20],-0.687
same,glycan array binding signal (z-score),[21],-0.73
same,glycan array binding signal (z-score),[22],-0.659
same,glycan array binding signal (z-score),[23],-0.533
same,glycan array binding signal (z-score),[24],-0.575
same,glycan array binding signal (z-score),[25],-0.686
same,glycan array binding signal (z-score),Man(a1-3)[Man(a1-6)]Man,-0.509
same,glycan array binding signal (z-score),[26],0.214
same,glycan array binding signal (z-score),[27],0.168
same,glycan array binding signal (z-score),[28],0.023
same,glycan array binding signal (z-score),[29],-0.359
same,glycan array binding signal (z-score),[30],-0.591
same,glycan array binding signal (z-score),Man(a1-6)Man,-0.209
same,glycan array binding signal (z-score),Man(b1-4)GlcNAc,0.402
same,glycan array binding signal (z-score),MurNAc(b1-4)GlcNAc,-0.296
same,glycan array binding signal (z-score),Neu5Ac(a2-3)Gal,0.304
